Reference: PubChem BioAssay AID2100 (National Center for Advancing Translational Sciences (NCATS), 2009)
Out of some 300,000 compounds screened, about 1,200 (0.4%) were called active. Inconclusive means that the source gave no clear call. Such entries were picked first, then a sample of the others. Calls follow the shape of the dose curve; as a rule, active = well fitted inhibition curve with a large enough effect; inconclusive = small, poorly fitted or top-dose-only effect, or another doubt; inactive = no such curve, though single readings can be large or run the other way. Potencies of inconclusive entries are doubtful fits and often do not repeat.
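For activity change, negative = inhibition in this document: 0% = full enzyme reaction and -100% = no-enzyme basal signal.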
Potency is read from the fitted curve at half-maximal effect.

These molecules were tested against Lysosomal alpha-glucosidase (Homo sapiens) (UniProt P10253) (assay: qHTS Assay for Inhibitors and Activators of Human alpha-Glucosidase Cleavage of Glycogen). Conditions: recombinant GAA, glycogen substrate, Amplex Red glucose oxidase fluorescence; activity change, negative = inhibition: at 76.4 µM (top of the series) unless noted.
Summary of the method: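 Recombinant human enzyme (4 nM); glycogen substrate; 37 C, 40 min, pH 5.0. Readout: coupled glucose oxidase/Amplex Red fluorescence.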
`COc1ccc(NCC(=O)Nc2ccc(Br)cc2F)c(OC)c1` was tested, and the Potency was active: 39.8 µM. `CC1=CC(C)(C)Nc2ccc(OC(=O)CN3C(=O)c4cccc5cccc(c45)C3=O)cc21` was tested, and the “activity change, negative = inhibition” value was inactive: -20.1%. For `COc1ccc(NC(=O)Nc2cccs2)cc1Cl`, the Potency was inconclusive: 14.1 µM [inhibitor, partial curve]. `CC(C)(C)/C(O)=C/c1nc2cc(Cl)ccc2oc1=O` was tested, and the Potency was active: 3.16 µM. With `S=c1nc(-c2ccco2)[nH][nH]1` the Potency was inconclusive: 14 µM [activator, partial curve, poor fit]. In the case of `Cc1nc(-c2ccc(C(F)(F)F)cc2)sc1C(=O)NN`, the Potency is reported as inconclusive: 25.1 µM [inhibitor, partial curve]. With `c1cc2c3c(cccc3c1)NC1(CCC3(CC1)Nc1cccc4cccc(c14)N3)N2` the Potency was inconclusive: 3.14 µM [inhibitor, partial curve]. `CCOC(=O)N1CCC(NC(=O)C2CCN(c3ccc(N4CCOCC4)nn3)CC2)CC1` was tested, and the Potency was inconclusive: 28 µM [activator, single point]. `Cc1cccc(OCc2ccc(-c3nc(C#N)c(NCCN(C)C)o3)o2)c1` was tested, and the Potency was inconclusive: 28.2 µM [inhibitor, partial curve]. `Cn1c(=O)[nH]c(=O)c2[nH]c(N(Cc3ccccc3)Cc3ccccc3)nc21` was tested, and the Potency was inconclusive: 8.91 µM [inhibitor, partial curve]. `CCN(CC)c1ccc(NC(=O)CSc2nnc(C)c(=O)[nH]2)cc1` was tested, and the Potency was active: 25.1 µM. In the case of `Oc1ccc(/C=N/Nc2cc(N3CCCC3)nc(N3CCCC3)n2)cc1O`, the Potency is reported as inconclusive: 10 µM [inhibitor, full curve]. For `O=C(O)CC(NC(=O)C1CCCCC1)c1cc([N+](=O)[O-])ccc1Cl` (configuration not stated), the Potency was inconclusive: 14.1 µM [inhibitor, partial curve, poor fit]. With `O=c1[nH]c(Nc2ccc(F)cc2)cc2ccccc12` the Potency was inconclusive: 39.8 µM [inhibitor, partial curve]. In the case of `O=C(/C=C/c1ccco1)Nc1ccccc1N1CCCC1`, the Potency is reported as inconclusive: 31.6 µM [inhibitor, partial curve]. In the case of `Cc1ccccc1NC(=S)NNC(=O)c1csc2c1CCC(C)C2` (configuration not stated), the Potency is reported as inconclusive: 31.4 µM [inhibitor, partial curve]. For `CC(C)(C)NC(=O)C(c1ccncc1)N(C(=O)Cn1nnc(-c2ccc(F)cc2)n1)c1ccccc1F` (configuration not stated), the Potency was inconclusive: 12.6 µM [inhibitor, partial curve]. For `Cc1cc(NC(=O)CN2C(=O)NC(C)(CCc3ccccc3)C2=O)no1` (configuration not stated), the Potency was inconclusive: 44.7 µM [inhibitor, partial curve]. `NC[C@@H]1O[C@H](C23CC4CC(CC(C4)C2)C3)Cc2c1ccc(O)c2O` was tested, and the Potency was inconclusive: 10 µM [inhibitor, partial curve]. In the case of `CCNc1ccc(S(=O)(=O)N(C)C)cc1NCC(=O)Nc1ccccc1Cl`, the Potency is reported as inconclusive: 24.9 µM [inhibitor, single point]. `Cc1cc(C)n2c(Nc3ccc4c(c3)OCCO4)c(-c3ccccc3)nc2n1` was tested, and the Potency was inconclusive: 8.91 µM [inhibitor, full curve]. In the case of `COc1cc(/C=N/NC(=O)c2ccncc2)ccc1O`, the Potency is reported as inconclusive: 39.8 µM [inhibitor, partial curve]. `CCNC(=O)CC1C(=O)N(c2ccc(F)cc2)C(=O)N1Cc1ccc(OC)c(OC)c1` (configuration not stated) was tested, and the Potency was inconclusive: 5.62 µM [inhibitor, single point]. In the case of `O=C(CNc1cccc(Cl)c1)NNC(=S)NCc1ccccc1`, the Potency is reported as inconclusive: 35.5 µM [inhibitor, partial curve]. With `COc1ccc(N2C(=S)NC3N2C(=S)NC3(C)c2ccccc2)cc1` (configuration not stated) the Potency was inconclusive: 3.52 µM [inhibitor, full curve]. In the case of `O=C(O)c1ccccc1NS(=O)(=O)c1ccc(NNC(=S)Nc2ccc(OC(F)F)cc2)c([N+](=O)[O-])c1`, the Potency is reported as inconclusive: 22.2 µM [inhibitor, partial curve]. For `COc1ccc(C(=O)C[n+]2ccc(N)c(C)c2C)cc1`, the Potency was inconclusive: 35.5 µM [inhibitor, partial curve]. `CCNC(=S)N/N=C(\C)c1ccc2ccccc2c1OC(F)F` was tested, and the Potency was active: 50.1 µM. For `Cc1cccc(CCn2c(=O)c3ccccc3n(Cc3ccccc3C)c2=O)c1`, the Potency was inconclusive: 44.7 µM [inhibitor, partial curve]. In the case of `CC(C)c1ccc(NNC(=O)C2CCC2)cc1`, the Potency is reported as inconclusive: 25.1 µM [inhibitor, partial curve]. In the case of `COc1ccc(Cl)cc1NC(=O)C(=O)NCc1ccc(Cl)cc1`, the “activity change, negative = inhibition” value is reported as inactive: 17.5% [at 76.3 µM]. In the case of `COc1ccc(/C(=N/OC(C)=O)c2nccc3cc(OC)c(OC)cc23)cc1OC`, the “activity change, negative = inhibition” value is reported as inactive: 2.57%. With `CC(=C/c1ccccc1)/C=N/NC(=O)c1ccccn1` the Potency was inconclusive: 50.1 µM [inhibitor, single point]. In the case of `CC(C)CC(O)(CC(C)C)C(=O)NNc1ccccc1`, the Potency is reported as inconclusive: 10 µM [inhibitor, full curve]. With `COC(=O)c1c(C)c(C)nc(N)c1C#N` the Potency was inconclusive: 249 µM [activator, partial curve, poor fit]. With `Cc1sc2ncnc(N/N=C/c3ccc(O)cc3)c2c1C` the Potency was inconclusive: 3.52 µM [inhibitor, full curve]. In the case of `N#Cc1c(-n2ncnc2-c2cccc(Cl)c2)sc2c1CCCCC2`, the Potency is reported as inconclusive: 39.8 µM [inhibitor, partial curve]. `Brc1ccc(-c2csc(N/N=C/c3cccnc3)n2)cc1` was tested, and the Potency was inconclusive: 28.2 µM [inhibitor, partial curve]. With `CN(c1ccc(C(=O)NCc2ccc3c(c2)OCO3)cc1)S(=O)(=O)c1ccccc1` the “activity change, negative = inhibition” value was inactive: -13.2%. In the case of `O=C(O)CC1S/C(=N/N=C/C2CC=CCC2)NC1=O` (configuration not stated), the Potency is reported as inconclusive: 15.7 µM [inhibitor, partial curve]. In the case of `CCCCNC(=O)c1ccc2c(c1)NC(=O)C(C(C)C)N2` (configuration not stated), the Potency is reported as inconclusive: 3.16 µM [inhibitor, full curve]. In the case of `Cc1cc(C)cc(NC(=S)NCc2ccc3[nH]c4c(c3c2)CCCC4)c1`, the Potency is reported as inconclusive: 25.1 µM [inhibitor, single point].
